PubChem BioAssay AID1918954 (Molecular Pharmacology Branch, DTP, NCI, 2023)
For part of its entries the source gives two or more results. The other results are left out here. There may be further records. Values that stand side by side repeat one measurement across runs, samples, wells, individuals or studies. Marks such as (2×) say how often a value occurs here. Marks such as [2022-09] give the month of the run.

Tested on: MDA-MB-468 complex spheroids with HUVEC/MSC, viability
Assay: Anticancer human tumor MDA-MB-468 cell line growth inhibition;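 note: spheroids exposed to agents for seven days; 100% = DMSO vehicle control viability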
Settings: stronger effect = lower value
Description: Multicellular complex tumor spheroid response to LSD1 Inhibitor Iadademstat in combination with a variety of drugs and investigational agents in selected tumor cell lines
The current study was undertaken to assess response to LSD1 inhibitors in combination with standard-of-care drugs and investigational agents in solid tumor complex spheroid models as well as in the K-562 leukemia. Complex spheroids include a stromal component modeled by human endothelial cells (HUVEC) and fibroblasts modeled by human mesenchymal stem cells (MSCs). The concentration ranges selected for each drug and investigational agent were based upon clinically achievable concentrations if the clinical Cmax of the agent was known.
Compounds. The drugs and investigational agents used in this study are listed on Table 1. All of the agents used, including staurosporine (NSC755774) and gemcitabine (NSC613327), were obtained from the Developmental Therapeutics Program, NCI. FDA-approved anticancer drugs are available from the NCI at http://dtp.nci.nih.gov/branches/dscb/oncology_drugset_explanation.html. Drugs and investigational agents were >95% pure by proton nuclear magnetic resonance (NMR) and liquid chromatography/mass spectrometry (LC/MS). Stock solutions were prepared at 400x in DMSO, stored at -70 degrees C, and diluted in fresh medium prior to their use. The final concentration of DMSO in cell culture wells never exceeded 0.25% (v/v). The FDA-approved anticancer drug set is available from the Developmental Therapeutics Program at https://dtp.cancer.gov/organization/dscb/obtaining/available_plates.htm. All drugs and investigational agents were tested over a range starting from a high concentration at or near the clinical Cmax and decreasing in half-log increments. If the clinical Cmax for an agent had not been determined, the highest concentration tested was 10 microM.
Cell Lines. The patient-derived cancer cell (PDC) lines: 292921-168-R-J2-PDC, K24384-001-R-PDC, and 521955-158-R2-J5-PDC pancreatic carcinomas, 556581-035-R-J1 ovarian carcinoma, 324938-238-R-J1-PDC, 855422-203-R-J1-PDC and 883617-216-R-J1-PDC urothelial bladder carcinomas, 743489-274-T-PDC renal cell carcinoma, 138582-R-J1 Merkel cell tumor, K60290-347-R-J1 and K57222-313-R-J1-PDC glioblastomas, 653999-131-R-J2-PDC, LG0703-F948-PDC, and 349418-098-R-PDC non-small cell lung carcinomas, 885512-296-R-J2-PDC, 171881-019-R-J1-PDC breast carcinomas and 186277-243-T-J2-PDC and 233499-124-R-J2-PDC colon carcinomas were obtained from the NCI Patient-Derived Models Repository (PDMR, https://pdmr.cancer.gov). The established cell lines NCI/ADR-RES (RRID:CVCL_14520 and OVCAR-5 (RRID:CVCL_1628) ovarian carcinomas, 786-O (RRID:CVCL_1051) and A498 (RRID:CVCL_A498) renal cell carcinoma, NCI-H211 (ATCC, cat. CRL-5824; RRID:CVCL_1529), NCI-H196 (ATCC, cat. CRL-5823, RRID:CVCL_1509), SW 1271 (ATCC, cat. CRL-2177, RRID:CVCL_1716) and NCI-H1876 (ATCC, cat. CRL-5902, RRID:CVCL_1503) small cell lung carcinomas, MDA-MB-231 (RRID:CVCL_0062) and MDA-MB-468 (RRID:CVCL_0419)breast carcinomas (10-12). Pooled donor human umbilical vein endothelial cells (HUVEC, Lonza, cat. CC-2519) and human mesenchymal stem cells (hMSC, Lonza, cat. PT-2501) were purchased from Lonza (Walkersville, MD).
Cell Culture. All cells were maintained in an incubator at 37 degrees C and 5% CO2 with 95% humidity. The PDC lines were cultured according to standard operating procedures established by the NCI PDMR (https://pdmr.cancer.gov). Briefly all PDCs were thawed and cultured in Matrigel-coated flasks prepared with a working solution of 1X Ham's F-12 nutrient mix, without supplementation (Invitrogen, Waltham, MA, cat. 11765054), 100 U/mL penicillin-streptomycin (Invitrogen, cat. 15140122), and 2.5% Matrigel (Corning Inc., Corning, NY, cat. 354248) for the first three passages. […]

**Q.** `O=C(C=Cc1cccc(S(=O)(=O)Nc2ccccc2)c1)NO` was tested. Which viability, T/C (compound alone 3 µM) did it give?
**A.** The viability, T/C was 15.4% [2022-01] and 97.2% [2022-02].

**Q.** Which results are given for `NC1CCC(NC2CC2c2ccccc2)CC1` (stereo not drawn)?
**A.** viability, T/C (compound alone 0.1 µM): 86.4, 101 (2×), 88.1, 85.1, 100, 104 (2×), 113, 92.7, 94.7, 97, 110, 103 (2×), 94.3, 112, 98.8, 114, 92.5, 99.7, 82, 96.2, 107, 93.2%; viability, T/C (compound alone 1 µM): 89.1, 81.8, 82.7, 82.5, 94.6, 95, 113, 102, 83.4, 92.3, 87, 79.4, 85.4, 82.8, 82, 85.8, 88.8, 94 (2×), 86, 76.4, 69.8, 67.7, 80.5, 91%; viability, T/C (compound alone 3.16 µM): 73.2, 85.7, 79.1, 102 (2×), 87.1, 74, 95.5, 92.6 (2×), 96, 83.7, 95.4, 89.1, 82.1, 89.3, 71, 86.5, 75.4, 81.6, 78.2, 87.2, 85.8, 80.7%; viability, T/C (compound alone 10 µM): 54.5, 66.6, 70.3, 82.9, 71.7, 74.8, 61.5 (2×), 68.7, 62.8, 85.2, 95, 84.8, 67.7, 76.4, 73, 65.9, 62, 57.5, 57.7, 70.2, 46.4, 60.7%

**Q.** `Nc1ccn(C2OC(CO)C(O)C2(F)F)c(=O)n1` (stereo not drawn) was tested. Which viability, T/C (compound alone 0.000949 µM) did it give?
**A.** Its viability, T/C is 7.49% [2022-01] and 40.7% [2022-02].

**Q.** With `CC(C)CC(NC(=O)C(Cc1ccccc1)NC(=O)c1cnccn1)B(O)O` (stereo not drawn) as the compound, how does the viability, T/C (compound alone 0.000316 µM) read?
**A.** Its viability, T/C is 91.1% [2022-01] and 7.05% [2022-02].

**Q.** And the viability, T/C (compound alone 0.001 µM)?
**A.** The viability, T/C was 29.7% [2022-01] and 0.17% [2022-02].

**Q.** `CC1(C)CCC(CN2CCN(c3ccc(C(=O)NS(=O)(=O)c4ccc(NCC5CCOCC5)c([N+](=O)[O-])c4)c(Oc4cnc5[nH]ccc5c4)c3)CC2)=C(c2ccc(Cl)cc2)C1` was tested. Which viability, T/C (compound alone 10 µM) did it give?
**A.** Its viability, T/C is 38.5% [2022-01] and 2.56% [2022-02].

**Q.** With `NC1CC1c1ccc(-c2cccc(O)c2)cc1` (stereo not drawn) as the compound, how does the viability, T/C (compound alone 0.316 µM) read?
**A.** Its viability, T/C is 94.6, 90.9, 116, 89.3, 104, 93.5, 86, 121, 90.5, 93.1, 96.5, 101, 94, 102, 97.9, 89.7, 80.4, 90.2, 87.8, 99.9, 105, 93, 92.7, 97.3, 88.1%.

**Q.** And the viability, T/C (compound alone 1 µM)?
**A.** Its viability, T/C is 114 (2×), 92.2, 109, 104, 105, 90.4, 91.1, 113 (2×), 83.5, 92.7, 117, 107, 115, 96, 93.5, 92.9, 96.7, 87.5, 80.7, 97.8, 96.2, 102, 97.5%.

**Q.** And the viability, T/C (compound alone 3.16 µM)?
**A.** Its viability, T/C is 95.6, 95.9, 96.3, 106 (2×), 109, 93.8, 102 (2×), 80.9, 95.2, 112, 110, 94, 97.9, 90.6 (2×), 92.4, 94.4, 80.5, 91.7, 99.7, 95.8, 94.5, 85.8%.

**Q.** What about the viability, T/C (compound alone 10 µM) of the same compound?
**A.** The viability, T/C was 79.5, 71.1, 74.2, 72.1, 68.2, 76.4, 80.5, 72.8, 70.9, 63.9, 73.2, 69.2, 74.7, 83.1, 58, 75, 65.1, 75.3, 70.1, 76, 81.9, 65.4, 77.2, 82.8, 66.2%.
